# Reference: the supplement of paper PMC11417369
# ± gives the standard deviation of the averaged measurements. The list shows a part of the results.
# System: PfAP2-G AP2 domain (GST-tagged)
# Test: gcPBM binding intensity (ln(normalized median fluorescence intensity)); higher = stronger DNA binding
# Outline: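 Using an Agilent 4 × 180k array, primer-extended double-stranded 36-bp intergenic genomic probes and negative controls were exposed for 1 h to GST-fused P. falciparum DNA-binding domains expressed in E. coli. Binding was carried out in 1× PBS with 1% milk, 0.2 mg/ml BSA, 0.5% salmon testes DNA and 0.03% Triton X-100, and protein was detected with Alexa488 anti-GST antibody and a 488 nm scan. Binding intensity is the highest Masliner-normalised natural-log median intensity across replicate spots of either probe orientation.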
row,Sequence,gcPBM binding intensity (ln)
1,TTTTTTTTAATTGTGATACGTATATTATTTTTTGAT [TGCATGCA_negctrl_site318],10.4 ± 0.39
2,ATTTTTAATATTATTACACACACTAATAAAAAAAAA [CACACA_site8265],10.1 ± 0.38
3,GAGAAGACATTACACAGTACCCAGGAAATCTACGGA [XGTACX_site1993],10.6 ± 0.43
4,TTATTCAGAAAAAAAAAAAAAAAAAAAAAAAAAAAA [CACACA_negctrl_site1662],9.6 ± 0.11
5,ATATATATATATATATGTACTTAATATTTCTTATTT [XGTACX_site6206],11 ± 0.76
6,TCGACAAATGTATATACACACATTTGTAACATAAAT [CACACA_site560],10.03 ± 0.014
7,TATAAAGGTGAAATTTGTACATAGTCATTTTTTAAT [XGTACX_site4811],10.7 ± 0.41
8,TGATTAAAAGAGGGAAAAAAAAAAAAAAAAAAAAAA [CACACA_negctrl_site896],9.62 ± 0.25
9,TGACGAAAAAAAAGGGTGCTTAGTATAACTTTAAAG,10.03 ± 0.035
10,TTCTTTTTTAAACACACACACACAAGAAAATATATA [CACACA_site5680],10.4 ± 0.33
11,TATATTATTATATATTGTACTTTTTATATTTGCATT [XGTACX_site2978],11.2 ± 0.67
12,TACACTTGTAATTGCGTGCACGAAGGATATATATAT,10.4 ± 0.27
13,TATGTATATTTTTTTGTGCACATATATATATATATA,10.4 ± 0.35
14,TATGAATATCTATACACACACATATATATACTCACT [CACACA_site1597],9.85 ± 0.14
15,CAAAGATATATAAACACACAAATATAACATATATAC [CACACA_site7395],9.93 ± 0.057
16,TATATTATTAATTAAGCACACATTATTTTTATAATA [CACACA_site3982],9.91
17,TAACATAATATAGACACACACATGTACATATGCCAA [CACACA_site1842],11.1 ± 0.64
18,TAAAAAAATAAATATACACACATATATAAATATGTA [CACACA_site6641],9.67 ± 0.042
19,ATTTTTTTTTTAAAATGTACATGAGAAATTGTATAT [XGTACX_site425],11.2 ± 0.93
20,TTTCTTATATAAGTGTACTAAAATATATATATGCAA [GTGCAC_negctrl_site546],11.2 ± 0.84
21,ATATAACTTTTCTTAACACACAAAAAACAAAAATAA [CACACA_site2380],10.2 ± 0.17
22,AAGTGTCAAAGTTACACACACAAACTTGTCATTTTT [CACACA_site837],9.99
23,GGTATACATATTAAATGTACATATTTTAACAATAAG [XGTACX_site4868],11.1 ± 0.51
24,AAATATAATAATAATTTAAGAATCTAATATTTTATA [CACACA_negctrl_site831],9.36 ± 0.17
25,TACTATATCGATACCAGTACAGATTTATAAATAATA [XGTACX_site7491],10.9 ± 0.59
